A collection of fitness landscapes (doi:10.1126/science.1257360)
This is one part of the list.

B1: PhoQ; a variant is named by its letters at X, in order, P23837 (parent)
chain: MKKLLRLFFPLSLRVRFLLATAAVVLVLSLAYGMVALIGYSVSFDKTTFRLLRGESNLFYTLAKWENNKLHVELPENIDKQSPTMTLIYDENGQLLWAQRDVPWLMKMIQPDWLKSNGFHEIEADVNDTSLLLSGDHSIQQQLQEVREDDDDAEMTHSVAVNVYPATSRMPKLTIVVVDTIPVELKSSYMVWSWFIYVLSANLLLVIPLLWVAAWWSLRPIEALAKEVRELEEHNRELLNPATTRELTSLVRNLNRLLKSERERYDKYRTTLTDLTHSLKTPLXXLQXXLRSLRSEKMSVSDAEPVMLEQISRISQQIGYYLHRASMRGGTLLSRELHPVAPLLDNLTSALNKVYQRKGVNISLDISPEISFVGEQNDFVEVMGNVLDNACKYCLEFVEISARQTDEHLYIVVEDDGPGIPLSKREVIFDRGQRVDTLRPGQGVGLAVAREITEQYEGKIVAGESMLGGARMEVIFGRQHSAPKDE

Variants of: B1
Assay: enrichment ratio after two sorts for PhoP signalling (ratio (wild type AVST 3.29)); higher = more functional
Conditions: with PhoP (E. coli)

Variant | enrichment ratio
RQDT | ≤ 0.25
EYLN | ≤ 0.25
HVHT | ≤ 0.25
VPTC | ≤ 0.25
IGTG | ≤ 0.25
PYYW | ≤ 0.25
LGAR | ≤ 0.25
YHRD | ≤ 0.25
KPDV | ≤ 0.25
EMYC | ≤ 0.25
TNMD | ≤ 0.25
LCKV | ≤ 0.25
MCKG | ≤ 0.25
APPI | ≤ 0.25
RMMY | ≤ 0.25
WPCK | ≤ 0.25
GASM | 2.46
DDCA | ≤ 0.25
TPWV | ≤ 0.25
YYHH | ≤ 0.25
VMNK | ≤ 0.25
VRQQ | ≤ 0.25
TPEE | ≤ 0.25
SRVP | ≤ 0.25
FTTH | ≤ 0.25

Variant | enrichment ratio
NGRS | ≤ 0.25
YDLD | ≤ 0.25
PKAC | ≤ 0.25
PCQV | ≤ 0.25
NPPF | ≤ 0.25
WDMI | ≤ 0.25
GDYK | ≤ 0.25
YLIG | ≤ 0.25
FEHW | ≤ 0.25
EQAV | ≤ 0.25
EQMS | ≤ 0.25
VVIY | ≤ 0.25
WFPN | ≤ 0.25
GWWV | ≤ 0.25
VAFM | 2.97
QYDG | ≤ 0.25
NPSM | ≤ 0.25
HRDK | ≤ 0.25
YSPG | ≤ 0.25
GQFQ | ≤ 0.25
SRSC | ≤ 0.25
CFFK | ≤ 0.25
HRWS | ≤ 0.25
WIRD | ≤ 0.25
GLCR | ≤ 0.25

Variant | enrichment ratio
IATL | ≤ 0.25
NVTL | ≤ 0.25
YNKH | ≤ 0.25
DQMS | ≤ 0.25
ECKQ | ≤ 0.25
NAKK | ≤ 0.25
FEEN | ≤ 0.25
LPIK | ≤ 0.25
WDLL | ≤ 0.25
TQRY | ≤ 0.25
RHFS | ≤ 0.25
DQKL | ≤ 0.25
ICGP | ≤ 0.25
NCFF | ≤ 0.25
FNQC | ≤ 0.25
MQHV | ≤ 0.25
HDTC | ≤ 0.25
WHEL | ≤ 0.25
HYNQ | ≤ 0.25
KRFG | ≤ 0.25
ISLE | 2.04
SIPE | ≤ 0.25
LESS | ≤ 0.25
RIYT | ≤ 0.25
ADKV | ≤ 0.25

Variant | enrichment ratio
FIRM | ≤ 0.25
GMLD | ≤ 0.25
YYDR | ≤ 0.25
GYLW | ≤ 0.25
IKSK | ≤ 0.25
SHKP | ≤ 0.25
VDIR | ≤ 0.25
EHFK | ≤ 0.25
MDIL | ≤ 0.25
VEDM | ≤ 0.25
AQWR | ≤ 0.25
LDKY | ≤ 0.25
INDI | ≤ 0.25
MDQK | ≤ 0.25
PLHP | ≤ 0.25
IAKP | ≤ 0.25
AEVT | 15.3
LCMW | ≤ 0.25
RDFL | ≤ 0.25
HHCC | ≤ 0.25
QIDY | ≤ 0.25
GGSC | 9.93
KHVS | ≤ 0.25
CFNY | ≤ 0.25
YWQT | ≤ 0.25

Variant | enrichment ratio
GYFY | ≤ 0.25
YYIM | ≤ 0.25
FSAP | ≤ 0.25
GTEF | ≤ 0.25
AFAG | ≤ 0.25
ADRD | ≤ 0.25
HWVF | ≤ 0.25
EYVI | ≤ 0.25
SDWS | ≤ 0.25
TDAC | 2.51
RCGF | ≤ 0.25
PCRE | ≤ 0.25
YHYF | ≤ 0.25
LPHG | ≤ 0.25
LDLS | ≤ 0.25
WGPE | ≤ 0.25
FQML | 0.396
CLFI | ≤ 0.25
TRTR | ≤ 0.25
PRNS | ≤ 0.25
PSYT | ≤ 0.25
EVMR | ≤ 0.25
VAVT | ≤ 0.25
YPFM | ≤ 0.25
MTFK | ≤ 0.25

Variant | enrichment ratio
NWWF | ≤ 0.25
TMTM | 17.1
WYDH | ≤ 0.25
RKHK | ≤ 0.25
DEHC | ≤ 0.25
VLRV | ≤ 0.25
HTDR | ≤ 0.25
AHHL | ≤ 0.25
ADPG | ≤ 0.25
MFQW | ≤ 0.25
PMLE | ≤ 0.25
IFGQ | ≤ 0.25
LIDK | ≤ 0.25
FRTL | ≤ 0.25
TSSR | ≤ 0.25
PAFP | ≤ 0.25
LDSA | 0.292
RAIK | ≤ 0.25
TEGT | 22.6
DCYI | ≤ 0.25
NECG | ≤ 0.25
SYDH | ≤ 0.25
GFNY | ≤ 0.25
VIEI | ≤ 0.25
QKLP | 1.15

Variant | enrichment ratio
FQTV | ≤ 0.25
DFPA | ≤ 0.25
WKHH | ≤ 0.25
HVDL | ≤ 0.25
NLYN | ≤ 0.25
DSWH | ≤ 0.25
SPFP | ≤ 0.25
NRVN | ≤ 0.25
NKTK | ≤ 0.25
KTIA | ≤ 0.25
LMCI | ≤ 0.25
ACQR | ≤ 0.25
RNSI | ≤ 0.25
DSCY | ≤ 0.25
TPCQ | ≤ 0.25
GDPK | ≤ 0.25
KRCR | ≤ 0.25
MYYI | ≤ 0.25
FDEH | ≤ 0.25
MVMT | ≤ 0.25
YFFW | ≤ 0.25
WYAH | ≤ 0.25
PCHK | ≤ 0.25
WDWN | ≤ 0.25
FYLD | ≤ 0.25

Variant | enrichment ratio
PPSS | ≤ 0.25
VGRM | ≤ 0.25
GRHI | ≤ 0.25
VRIK | ≤ 0.25
PRHH | ≤ 0.25
EGFL | ≤ 0.25
HDSE | ≤ 0.25
NMKD | ≤ 0.25
ELVY | 0.824
QKYT | 1.91
SHVI | 1.46
GYPG | ≤ 0.25
NPYM | ≤ 0.25
GSHR | ≤ 0.25
KKWY | ≤ 0.25
DCVM | ≤ 0.25
GVRC | ≤ 0.25
GCQK | ≤ 0.25
PPLN | ≤ 0.25
PMDM | ≤ 0.25
